The record followed here is the supplement of paper PMC4604168 (melanoma cell lines).

The structures appear in SMILES notation. This is one part of the list. Single values are uncertain, as repeats are few or missing.

Test systems include 501Mel; A101D; A2058; A375.
Assay in all cases: cell count relative to DMSO control; melanoma cells; higher = more viable cells
Common to all, as to conditions: library dose: standard library concentration; 72 h
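Note: cells treated in 1,536-well plates, then fixed and DAPI-stained, with nuclei counted from automated high-throughput microscope images.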

On to `COc1cc2c(Oc3ccc4[nH]c(C)cc4c3F)ncnc2cc1OCCCN1CCCC1` [cediranib] + COc1ccc(-c2ccc3c(N4CCOCC4)nc(N4C[C@@H](C)O[C@@H](C)C4)nc3n2)cc1CO [KU0063794] (first compound 2 µM, partner dose 0.1 µM), for which the cell count was found to be 84.7% in the experiment on 501Mel, 92.3% with A101D, 96.2% with A2058 and 122% in the experiment on A375.

`CC(C)(C)c1cnc(CSc2cnc(NC(=O)C3CCNCC3)s2)o1` + O=C(O)C(=O)Nc1sc2c(c1C(=O)O)CCNC2 [TCS401] (first compound 0.05 µM, partner dose 8.33333 µM): the cell count in the experiment on 501Mel turned out to be 89.7%; in the experiment on A101D it was 76.2%; in the experiment on A2058, 94.8%; in the experiment with A375 it was 165%.

For the molecule `COc1cc2c(Oc3ccc4[nH]c(C)cc4c3F)ncnc2cc1OCCCN1CCCC1` [cediranib] + N#Cc1c(O)c2c(-c3ccc(-c4ccccc4O)cc3)csc2[nH]c1=O [A769662] (first compound 2 µM, partner dose 10 µM), the cell count was 76.2% with 501Mel, 106% in the experiment with A101D, 96.2% with A2058 and 155% in the experiment on A375.

In the case of `CN(NC(=O)CC(=O)NN(C)C(=S)c1ccccc1)C(=S)c1ccccc1` + CCCCCCCCCCCC1=C(O)C(=O)C=C(O)C1=O [Embelin] (first compound 0.03 µM, partner dose 6 µM), the cell count turned out to be 3.09% in the experiment on 501Mel, 74.4% in the experiment on A101D, 19.1% with A2058 and 93.8% in the experiment with A375.

In the case of `CN(NC(=O)CC(=O)NN(C)C(=S)c1ccccc1)C(=S)c1ccccc1` + CC(C)CCN1c2nc(Nc3cc(F)c(O)c(F)c3)ncc2N(C)C(=O)C1C [BID1870] (first compound 0.03 µM, partner dose 1 µM), the cell count with 501Mel amounted to 8.29%; with A101D, 51.4%; with A2058, 17.3%; with A375 it was 128%.

`CN(NC(=O)CC(=O)NN(C)C(=S)c1ccccc1)C(=S)c1ccccc1` + COc1ccc(-c2ccc3c(N4CCOCC4)nc(N4C[C@@H](C)O[C@@H](C)C4)nc3n2)cc1CO [KU0063794] (first compound 0.03 µM, partner dose 0.1 µM): the cell count is 4.96% in the experiment on 501Mel, 62.6% with A101D, 16.4% in the experiment on A2058 and 95.4% in the experiment on A375.

Turning to `CCCCCCCCc1ccc(CCC(N)(CO)CO)cc1` [fingolimod] + N#Cc1c(O)c2c(-c3ccc(-c4ccccc4O)cc3)csc2[nH]c1=O [A769662] (first compound 10 µM, partner dose 10 µM), the cell count in the experiment with 501Mel is 0.6%; in the experiment with A101D it was 9.79%; in the experiment with A2058 it was 8.05%; with A375, 50.9%.

Turning to `CC(C)(C)c1cnc(CSc2cnc(NC(=O)C3CCNCC3)s2)o1` + O=C1NC(=O)/C(=C/c2ccc(-c3ccc(F)cc3O)o2)S1 [AS252424] (first compound 0.05 µM, partner dose 5 µM), the cell count in the experiment on 501Mel stood at 107%; in the experiment with A101D, 110%; in the experiment on A2058, 108%; in the experiment with A375 it was 105%.

For the molecule `CCCCCCCCc1ccc(CCC(N)(CO)CO)cc1` [fingolimod] + O=C1NC(=O)/C(=C/c2ccc(-c3ccc(F)cc3O)o2)S1 [AS252424] (first compound 10 µM, partner dose 5 µM), the cell count was found to be 3.02% in the experiment on 501Mel, 4.08% in the experiment on A101D, 3.13% in the experiment with A2058 and 26.6% in the experiment on A375.

In the case of `NC(=O)c1ccc(N(C(N)=O)c2c(F)cccc2F)nc1-c1ccc(F)cc1F` + COc1ccc(-c2ccc3c(N4CCOCC4)nc(N4C[C@@H](C)O[C@@H](C)C4)nc3n2)cc1CO [KU0063794] (first compound 2 µM, partner dose 0.1 µM), the cell count in the experiment on 501Mel came to 109%; in the experiment with A101D, 104%; in the experiment with A2058, 88%; in the experiment on A375, 102%.

For the molecule `COc1cc2c(Oc3ccc4[nH]c(C)cc4c3F)ncnc2cc1OCCCN1CCCC1` [cediranib] + CCN(CC)CCCCNc1ncc2cc(-c3cc(OC)cc(OC)c3)c(NC(=O)NC(C)(C)C)nc2n1 [PD173074] (first compound 2 µM, partner dose 0.5 µM), the cell count was 71.6% with 501Mel, 89.6% with A101D, 99.8% in the experiment on A2058 and 141% in the experiment on A375.

Turning to `NC(=O)c1ccc(N(C(N)=O)c2c(F)cccc2F)nc1-c1ccc(F)cc1F` + N#Cc1c(O)c2c(-c3ccc(-c4ccccc4O)cc3)csc2[nH]c1=O [A769662] (first compound 2 µM, partner dose 10 µM), the cell count in the experiment with 501Mel turned out to be 91.1%; with A101D, 103%; with A2058 it was 95.1%; in the experiment with A375, 118%.

With `CN(NC(=O)CC(=O)NN(C)C(=S)c1ccccc1)C(=S)c1ccccc1` + O=C1NC(=O)/C(=C/c2ccc(-c3ccc(F)cc3O)o2)S1 [AS252424] (first compound 0.03 µM, partner dose 5 µM), the cell count in the experiment with 501Mel was 13.6%; in the experiment on A101D it was 61.2%; in the experiment on A2058, 17.8%; with A375, 158%.

Consider `CN(NC(=O)CC(=O)NN(C)C(=S)c1ccccc1)C(=S)c1ccccc1` + Cn1cc(/C=C2\C(=O)Nc3cccnc32)c2ccccc21 [GW441756] (first compound 0.03 µM, partner dose 2 µM), for which the cell count in the experiment on 501Mel came out at 15.8%; with A101D, 80.6%; in the experiment with A2058, 24.4%; in the experiment on A375 it was 170%.

As to `CC(C)(C)c1cnc(CSc2cnc(NC(=O)C3CCNCC3)s2)o1` + COc1ccc(-c2ccc3c(N4CCOCC4)nc(N4C[C@@H](C)O[C@@H](C)C4)nc3n2)cc1CO [KU0063794] (first compound 0.05 µM, partner dose 0.1 µM), the cell count with 501Mel was 95.6%; in the experiment with A101D it was 76.2%; in the experiment on A2058, 80.3%; with A375 it was 87.8%.

Consider `CCCCCCCCc1ccc(CCC(N)(CO)CO)cc1` [fingolimod] + Cn1cc(/C=C2\C(=O)Nc3cccnc32)c2ccccc21 [GW441756] (first compound 10 µM, partner dose 2 µM), for which the cell count in the experiment on 501Mel amounted to 0.287%; with A101D, 5.4%; in the experiment on A2058, 5.82%; with A375 it was 20%.

Take `CCc1ccc(CCOc2ccc(CC3SC(=O)NC3=O)cc2)nc1` (stereo not given) [pioglitazone] + CCCCCCCCCCCC1=C(O)C(=O)C=C(O)C1=O [Embelin] (first compound 10 µM, partner dose 6 µM): the cell count in the experiment with 501Mel is 103%; in the experiment on A101D, 94%; with A2058, 103%; in the experiment on A375, 110%.

`NC(=O)c1ccc(N(C(N)=O)c2c(F)cccc2F)nc1-c1ccc(F)cc1F` + COc1cc2ncnc(Nc3ccc(Oc4ccccc4)cc3)c2cc1OC [SrcI1] (first compound 2 µM, partner dose 10 µM): the cell count worked out at 78.8% with 501Mel, 55% in the experiment on A101D, 85.6% with A2058 and 119% in the experiment with A375.

On to `CCCCCCCCc1ccc(CCC(N)(CO)CO)cc1` [fingolimod] + COc1cc2ncnc(Nc3ccc(Oc4ccccc4)cc3)c2cc1OC [SrcI1] (first compound 10 µM, partner dose 10 µM), for which the cell count was 0.364% in the experiment with 501Mel, 6.69% in the experiment with A101D, 4.13% with A2058 and 76.3% with A375.

Turning to `Cc1ccc(NC(=O)c2cccc(N(C)C)c2)cc1NC(=O)c1ccc(O)cc1` + CCc1ccc(CCOc2ccc(CC3SC(=O)NC3=O)cc2)nc1 [pioglitazone] (first compound 10 µM, partner dose 10 µM), the cell count with 501Mel amounted to 71.7%; with A101D, 86.9%; in the experiment on A2058 it was 105%; with A375 it was 109%.

Take `Cc1ccc(NC(=O)c2cccc(N(C)C)c2)cc1NC(=O)c1ccc(O)cc1` + COc1cc(N2CCC(N3CCN(C)CC3)CC2)ccc1Nc1ncc(Cl)c(Nc2ccccc2S(=O)(=O)C(C)C)n1 [NVP-TAE684] (first compound 10 µM, partner dose 0.4 µM): the cell count in the experiment on 501Mel was determined as 82.9%; in the experiment with A101D, 79.1%; in the experiment on A2058, 59.3%; in the experiment with A375 it was 92%.

For the molecule `NC(=O)c1ccc(N(C(N)=O)c2c(F)cccc2F)nc1-c1ccc(F)cc1F` + CCCCCCCCCCCC1=C(O)C(=O)C=C(O)C1=O [Embelin] (first compound 2 µM, partner dose 6 µM), the cell count in the experiment with 501Mel is 96.3%; in the experiment on A101D, 102%; in the experiment on A2058, 95.7%; in the experiment on A375 it was 106%.

In the case of `CCCCCCCCc1ccc(CCC(N)(CO)CO)cc1` [fingolimod] + Oc1nc(-c2ccc(C(F)(F)F)cc2)nc2c1CSCC2 [XAV939] (first compound 10 µM, partner dose 10 µM), the cell count in the experiment with 501Mel stood at 5.05%; in the experiment with A101D it was 43.8%; with A2058, 72.5%; with A375, 119%.

In the case of `CN(NC(=O)CC(=O)NN(C)C(=S)c1ccccc1)C(=S)c1ccccc1` + COC(=O)c1sccc1S(=O)(=O)Nc1ccc(Nc2ccccc2)cc1OC [GSK0660] (first compound 0.03 µM, partner dose 5 µM), the cell count stood at 13.1% in the experiment with 501Mel, 57.8% with A101D, 16.6% with A2058 and 71.2% with A375.

For the molecule `COc1cc2c(Oc3ccc4[nH]c(C)cc4c3F)ncnc2cc1OCCCN1CCCC1` [cediranib] + Oc1nc(-c2ccc(C(F)(F)F)cc2)nc2c1CSCC2 [XAV939] (first compound 2 µM, partner dose 10 µM), the cell count in the experiment on 501Mel worked out at 85.1%; in the experiment on A101D it was 101%; in the experiment on A2058, 77.4%; with A375, 137%.

Regarding `CC(C)(C)c1cnc(CSc2cnc(NC(=O)C3CCNCC3)s2)o1` + O=C(Nc1ccccc1)c1cc([N+](=O)[O-])ccc1Cl [GW9662] (first compound 0.05 µM, partner dose 10 µM), the cell count with 501Mel was found to be 81.6%; in the experiment with A101D it was 83.5%; with A2058, 74.3%; in the experiment with A375 it was 117%.

In the case of `COc1cc2c(Oc3ccc4[nH]c(C)cc4c3F)ncnc2cc1OCCCN1CCCC1` [cediranib] + COc1ccc(COc2ccc(Cc3cnc(N)nc3N)cc2OC)cc1 [GW2580] (first compound 2 µM, partner dose 5 µM), the cell count in the experiment on 501Mel came to 73.8%; in the experiment on A101D, 112%; in the experiment on A2058, 98%; in the experiment with A375, 109%.

On to `CCCCCCCCc1ccc(CCC(N)(CO)CO)cc1` [fingolimod] + CC(C)CCN1c2nc(Nc3cc(F)c(O)c(F)c3)ncc2N(C)C(=O)C1C [BID1870] (first compound 10 µM, partner dose 1 µM), for which the cell count stood at 1.83% in the experiment on 501Mel, 7.6% in the experiment on A101D, 43.3% with A2058 and 99.1% in the experiment with A375.

As to `CCCCCCCCc1ccc(CCC(N)(CO)CO)cc1` [fingolimod] + Cc1cc([N+](=O)[O-])ccc1NS(=O)(=O)c1cc(Cl)ccc1Cl [FH535] (first compound 10 µM, partner dose 5 µM), the cell count in the experiment on 501Mel was determined as 0.855%; in the experiment on A101D, 6.67%; with A2058, 37.4%; in the experiment with A375, 72.6%.

`NC(=O)c1ccc(N(C(N)=O)c2c(F)cccc2F)nc1-c1ccc(F)cc1F` + O=C1NC(=O)/C(=C/c2ccc(-c3ccc(F)cc3O)o2)S1 [AS252424] (first compound 2 µM, partner dose 5 µM): the cell count amounted to 94.8% with 501Mel, 100% in the experiment on A101D, 99% in the experiment on A2058 and 150% with A375.
